PubChem BioAssay AID256 (DTP/NCI, 2004)
Toxic doses and inconclusive results are not listed. Certain results were filed several times, with different values. They are shown here; other results are not. There may be further records. Values that stand side by side are repeats across runs, samples, wells, individuals or studies. What stands in brackets tells the records apart. A, B and so on number the origins entry by entry.

Tested on: CD2F1 mice, L1210 leukemia ip, survival T/C
Experiment: NCI In Vivo Anticancer Drug Screen. Data for tumor model L1210 Leukemia (intraperitoneal) in CD2F1 (CDF1) mice
Details: higher = longer survival
Outline: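 Antitumor effect is scored in animals hosting a serially transplanted tumor. Values compare compound-dosed animals against vehicle-only controls as a simple quotient.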

[1] = endpoint: median survival time, dose: 0.75 mg/kg/injection, schedule: Q01DX009 (ip), vehicle: water
[2] = endpoint: median survival time, dose: 50.0 mg/kg/injection, schedule: Q04DX003 (ip), vehicle: saline with Tween-80

**Q.** COc1cccc2c1C(=O)c1c(O)c3c(c(O)c1C2=O)C[C@](O)(C(=O)CO)CC3OC1CC(N)C(OC2CCCCO2)C(C)O1 (stereo partly specified) was tested. Which T/C [1] did it give?
**A.** The T/C was 114 % of control and 164 % of control.

**Q.** What about the T/C (endpoint: median survival time, dose: 1.5 mg/kg/injection, schedule: Q01DX009 (ip), vehicle: water) of the same molecule?
**A.** The T/C was 121 % of control and 177 % of control.

**Q.** What about the T/C (endpoint: median survival time, dose: 12.0 mg/kg/injection, schedule: Q01DX009 (ip), vehicle: water) of the same molecule?
**A.** The T/C was 110 % of control and 181 % of control.

**Q.** With N#Cc1c(-c2ccc(F)cc2)c(-c2ccc(F)cc2)nn(CCO)c1=O as the molecule, how does the T/C (endpoint: median survival time, dose: 200.0 mg/kg/injection, schedule: Q01DX005 (ip), vehicle: water) read?
**A.** The T/C was 112 % of control, 155 % of control, 162 % of control.

**Q.** How did the T/C (endpoint: median survival time, dose: 25.0 mg/kg/injection, schedule: Q04DX003 (ip), vehicle: saline with Tween-80) turn out when CN(C)c1ccc(N=Nc2cccc(C(=O)[O-])c2)cc1.CN(C)c1ccc(N=Nc2cccc(C(=O)[O-])c2)cc1.NC1CCCCC1N.[Pt+4] was run?
**A.** The T/C was 107 % of control and 175 % of control.

**Q.** What about the T/C [2] of the same molecule?
**A.** Its T/C is 116 % of control and 375 % of control.

**Q.** C/C=C/C=C\C=C/C(O)CC(OP(=O)(O)O)C(C)(O)/C=C/C1CC=CC(=O)O1 (stereo unspecified) was tested. Which T/C [1] did it give?
**A.** Its T/C is 119 % of control and 155 % of control.

**Q.** Which T/C (endpoint: mean survival time, dose: 2.0 mg/kg/injection, schedule: Q01DX009 (ip), vehicle: water) does the source give for CC[C@@]1(O)C[C@H](OC2CC(N(C)C)C(OC3CC(O)C(OC4CCC(=O)C(C)O4)C(C)O3)C(C)O2)c2c(cc3c(c2O)C(=O)c2c(O)ccc(O)c2C3=O)[C@H]1C(=O)OC (stereo partly specified) here?
**A.** Its T/C is 99 % of control and 162 % of control.

**Q.** For CN(C)N=Nc1ccc(S(=O)(=O)Nc2ncccn2)cc1, which T/C (endpoint: mean survival time, dose: 100.0 mg/kg/injection, schedule: Q01DX009 (ip), vehicle: saline with Tween-80) is on record?
**A.** Its T/C is 103 % of control and 161 % of control.

**Q.** For CC(C)C(N)C(=O)Nc1nncs1 (stereo unspecified), which T/C (endpoint: median survival time, dose: 200.0 mg/kg/injection, schedule: Q01DX009 (ip), vehicle: saline) is on record?
**A.** The T/C was 115 % of control and 164 % of control.

**Q.** For COC(=O)NC1=C(N2CC2)C(=O)C(NC(=O)OC)=C(N2CC2)C1=O, which T/C (endpoint: mean survival time, dose: 3.0 mg/kg/injection, schedule: Q01DX009 (ip), vehicle: saline) is on record?
**A.** The T/C was 120 % of control and 179 % of control.

**Q.** How did the T/C (endpoint: mean survival time, dose: 104.0 mg/kg/injection, schedule: Q01DX009 (ip), vehicle: Klucel (hydroxypropylcellulose) (HPC)) turn out when CC(=O)c1cccc(N=NN(C)C)c1 was run?
**A.** Its T/C is 117 % of control and 152 % of control.

**Q.** CC(C)CCn1cnc2c(=S)nc(N)[nH]c21 was tested. Which T/C (endpoint: mean survival time, dose: 200.0 mg/kg/injection, schedule: Q01DX001 (ip), vehicle: saline with Tween-80) did it give?
**A.** Its T/C is 109 % of control and 159 % of control.

**Q.** And the T/C (endpoint: mean survival time, dose: 400.0 mg/kg/injection, schedule: Q01DX001 (ip), vehicle: saline with Tween-80)?
**A.** The T/C was 120 % of control and 165 % of control.

**Q.** Which results are given for COc1cc(NS(C)(=O)=O)ccc1Nc1c2ccccc2nc2ccccc12?
**A.** T/C (endpoint: median survival time, dose: 2.0 mg/kg/injection, schedule: Q01DX009 (ip), vehicle: saline with Tween-80): 123 % of control and 182 % of control; T/C (endpoint: median survival time, dose: 8.0 mg/kg/injection, schedule: Q01DX009 (ip), vehicle: saline with Tween-80): 111 % of control, 151 % of control, 185 % of control; T/C (endpoint: median survival time, dose: 16.0 mg/kg/injection, schedule: Q01DX009 (ip), vehicle: saline with Tween-80): 87 % of control and 151 % of control

**Q.** Which T/C (endpoint: mean survival time, dose: 6.25 mg/kg/injection, schedule: Q04DX003 (ip), vehicle: saline with Tween-80) does the source give for O=S(=O)(O)O.[NH-]C(c1ccccc1)C([NH-])c1ccccc1.[Pt+2] (stereo unspecified) here?
**A.** Its T/C is 118 % of control [sample A] and 180 % of control [sample B].

**Q.** COC(C(=O)C(O)C(C)O)C1CC2C=C3C=C(OC4CC(OC5CC(O)C(OC)C(C)O5)C(OC(C)=O)C(C)O4)C(C)C(=O)C3=C(O)C2=C(O)C1OC1CC(OC2CC(OC3CC(C)(O)C(O)C(C)O3)C(O)C(C)O2)C(O)C(C)O1 (stereo unspecified) was tested. Which T/C (endpoint: mean survival time, dose: 4.0 mg/kg/injection, schedule: Q01DX009 (ip), vehicle: saline with Tween-80) did it give?
**A.** Its T/C is 108 % of control and 163 % of control.

**Q.** O=C(O)c1cc(C(=O)O)c(C(=O)O)cc1C(=O)O.[NH2-].[NH2-].[NH2-].[NH2-].[Pt+2].[Pt+2] was tested. Which T/C (endpoint: mean survival time, dose: 1.56 mg/kg/injection, schedule: Q04DX003 (ip), vehicle: water) did it give?
**A.** The T/C was 95 % of control and 150 % of control.

**Q.** With C=CC(=O)OCCCS(=O)(=O)[O-].C=CC(=O)OCCCS(=O)(=O)[O-].NC1CCCCC1N.[Pt+4] as the molecule, how does the T/C [2] read?
**A.** Its T/C is 119 % of control and 156 % of control.
